The results in this text go back to PubChem BioAssay (NCATS).

This is one part of the list. These are further read-outs of the screen, such as a control signal, another cell line or another target. No call is given for them. Most of these compounds were active or inconclusive in the main read-out, so they are no random draw. Words in brackets tell the shape of the fitted curve; partial curves, single points and poor fits give uncertain potencies.

A short description of this assay: qHTS Assay for Lipid Storage Modulators (AID 1519). The following applies: Drosophila S3 cells, BODIPY lipid droplet/cell ratio, laser cytometry, cells loaded with oleic acid. In short, it runs like this:
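Cells seeded at 5,000 per well were treated with compounds over a concentration series and loaded with oleic acid (400 uM, as added). Lipid droplet fluorescence (488 nm excitation, 500-530 nm channel) was read by laser-scanning cytometry and normalized to 20 uM Triacsin C.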
For orientation: qHTS replaces the single test concentration by a dilution series.

[1] abbreviates: measured here: cell count channel max response.
[2] abbreviates: measured here: cell number channel AC50.
Where [3] appears, read: measured here: lipid (BODIPY) channel AC50.
Setting [4] is: measured here: lipid channel max response.
Tags tell the direction and shape of the fitted curve.

For orientation: AC50 means the concentration giving half of the maximal activity seen. `COc1ccccc1-c1nc(Nc2ccncc2)c2ccccc2n1`: the max response under setting [1] was found to be 30% and the max response under setting [4] stood at 37%. For the same molecule, the AC50 is 501 nM [rising, full curve] under setting [2] and 501 nM [rising, full curve] under setting [3].
With `CC1CC2(C)Oc3ccccc3C3OCC1(COC(=O)Nc1ccccc1)C(C)C32` (stereo not drawn), the max response under setting [1] is 89.2% and the max response under setting [4] amounted to 118%. For the same molecule, the half-maximal activity concentration (AC50) under setting [2] is 3550 nM [rising, full curve] and the AC50 under setting [3] was 3550 nM [rising, full curve].
With `c1ccc(Nc2nc(-c3ccc4c(c3)OCO4)nc3ccccc23)cc1`, the max response under setting [1] was -4.42% and the max response under setting [4] is -11.1%. In addition, the AC50 reads like this: under setting [2], 22.4 nM [rising, full curve]; under setting [3], 25.1 nM [rising, full curve, poor fit].
Consider `CCSC(N)=Nc1ccc(C(F)(F)F)cc1`, for which the max response reads like this: under setting [1], -36.6%; under setting [4], -44%. Besides, the AC50 was 50100 nM [falling, single point] under setting [2] and 89100 nM [falling, single point] under setting [3].
Consider `COc1ncc2nc(CCc3ccccc3)c(=O)n(C3CC3)c2n1`, for which the max response under setting [1] is 28.2% and the max response under setting [4] was 40.5%. Also, the AC50 is 14.1 nM [rising, full curve, poor fit] under setting [2] and 20 nM [rising, full curve, poor fit] under setting [3].
For `CCCCNC(=O)[C@@H]1Cc2ccccc2N1C(=O)[C@H](N)CC`, the max response by setting is: under setting [1], 86%; under setting [4], 115%. Moreover, the half-maximal activity concentration (AC50) under setting [2] is 15800 nM [rising, partial curve, poor fit] and the AC50 under setting [3] is 39800 nM [rising, partial curve, poor fit].
With `COc1ccc(Oc2ncc3nc(-c4cccs4)c(=O)n(-c4ccccc4)c3n2)cc1`, the max response came to 1.04% under setting [1] and 1.02% under setting [4]. Also, the AC50 by setting is: under setting [2], 891 nM [rising, full curve]; under setting [3], 1000 nM [rising, full curve, poor fit].
